# In all, about 310,000 compounds went through this assay and about 2,200 (0.71%) showed an effect of 50% or more. Effects have a minus sign here. The list shows a part of the results.
# Target: human ether-à-go-go-related gene (hERG) potassium channel (human, UniProt Q12809)
# Experiment: primary screen, population patch clamp on CHO cells stably expressing hERG
# Sequence of human ether-à-go-go-related gene (hERG) potassium channel (Q12809 whole entry, looked up): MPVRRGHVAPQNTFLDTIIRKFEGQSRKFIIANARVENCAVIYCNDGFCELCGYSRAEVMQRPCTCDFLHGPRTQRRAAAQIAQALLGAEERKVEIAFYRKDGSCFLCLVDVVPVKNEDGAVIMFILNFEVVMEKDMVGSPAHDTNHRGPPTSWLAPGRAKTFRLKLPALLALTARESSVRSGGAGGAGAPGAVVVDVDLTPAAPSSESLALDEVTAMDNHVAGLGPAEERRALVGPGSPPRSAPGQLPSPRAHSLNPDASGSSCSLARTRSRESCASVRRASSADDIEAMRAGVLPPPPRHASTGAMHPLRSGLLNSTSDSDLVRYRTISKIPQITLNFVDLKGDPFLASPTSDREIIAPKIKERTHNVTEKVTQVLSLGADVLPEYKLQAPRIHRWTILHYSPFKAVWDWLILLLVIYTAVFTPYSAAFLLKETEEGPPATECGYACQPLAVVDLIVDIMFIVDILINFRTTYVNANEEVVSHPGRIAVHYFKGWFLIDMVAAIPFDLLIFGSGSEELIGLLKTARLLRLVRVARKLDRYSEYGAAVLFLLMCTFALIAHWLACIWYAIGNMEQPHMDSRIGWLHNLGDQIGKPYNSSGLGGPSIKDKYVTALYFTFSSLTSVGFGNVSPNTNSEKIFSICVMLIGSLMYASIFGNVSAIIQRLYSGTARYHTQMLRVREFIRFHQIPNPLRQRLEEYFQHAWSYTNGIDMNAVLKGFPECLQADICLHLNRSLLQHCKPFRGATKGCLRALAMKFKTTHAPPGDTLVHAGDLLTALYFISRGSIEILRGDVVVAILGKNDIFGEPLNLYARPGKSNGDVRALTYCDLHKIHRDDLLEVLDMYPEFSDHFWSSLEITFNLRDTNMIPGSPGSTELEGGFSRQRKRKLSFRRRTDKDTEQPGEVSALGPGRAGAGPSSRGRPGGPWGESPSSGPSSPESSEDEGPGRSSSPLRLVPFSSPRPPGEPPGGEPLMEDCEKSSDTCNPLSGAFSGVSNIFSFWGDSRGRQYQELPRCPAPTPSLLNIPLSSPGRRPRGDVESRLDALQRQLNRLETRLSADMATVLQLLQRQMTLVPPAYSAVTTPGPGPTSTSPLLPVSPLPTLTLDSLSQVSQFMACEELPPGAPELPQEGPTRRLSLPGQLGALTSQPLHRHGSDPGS
row,Structure (SMILES),"hERG current change (%, negative = inhibition) at 1uM"
1,COc1cc(OC)c(NC(=O)CCCNC(=O)Cn2cnc3sc(C)c(C)c3c2=O)cc1Cl,15.4%
2,N#CC[C@H](Cc1ccccc1)N1CC[C@@H](NC(=O)OCc2ccccc2)CCC1=O,-4.51%
3,CCOc1ccc2[nH]c(=O)c(C(c3nnnn3Cc3ccco3)N3CCC(C)CC3)cc2c1 (centres unmarked),-3.14%
4,O=C(CSc1nc2cccnc2n1Cc1ccccc1)NCc1ccco1,-14.7%
5,CC(C)NC(=O)CN(C(=O)CCC(=O)Nc1nccs1)c1ccc(C(C)C)cc1,12%
6,CC1=NN(Cc2ccccc2)C(=O)C1,2.84%
7,CCCS(=O)(=O)N1CCN(CC2CC=CCC2)CC1.O=C(O)C(=O)O (centres unmarked),0.625%
8,Cc1ccn2c(C(=O)N/N=C\c3ccc4c(c3)OCO4)c(C)nc2c1,3.12%
9,Cn1c(-c2ccccc2)cc2c3no[n+]([O-])c3ccc21,9.03%
10,COc1ccc(-n2c(O)c(C(C)=Nc3ccc4c(c3)CCC4)c(=O)[nH]c2=O)cc1,15.1%
11,Cc1cc(C)c(S(C)(=O)=O)c(Oc2ccc(F)cc2)n1,6.83%
12,NC(=O)C1CCN(CC(=O)Nc2cccnc2Cl)CC1,9.3%
13,COc1ccc(OC)c(NC(=O)c2cc(-c3cc(C)cc(C)c3O)n[nH]2)c1,11.8%
14,Cc1ccc(-n2ncc(C(=O)N3CCc4ccccc4C3)c2NC(=O)c2ccco2)cc1C,15.3%
15,CN(CC(=O)N1CC(=O)N(CCc2ccccc2)C(=O)C1)S(=O)(=O)c1cccc2nsnc12,12.6%
16,CCOc1ccc(Nc2nc(NCCN3CCOCC3)nc(OC)n2)cc1,-40%
17,O=C(CN1C(=O)NC2(CCCCC2)C1=O)N1CCN(S(=O)(=O)/C=C/c2ccccc2)CC1,8.44%
18,COc1cccc(NC(=O)c2ocnc2C)c1,-0.893%
19,c1ccc(C2c3c(ccc4ccccc34)Oc3ncn4nc(-c5ccco5)nc4c32)cc1 (centres unmarked),-2.5%
20,O=C1CC(N2CCN(c3ccccc3F)CC2)C(=O)N1c1ccc(F)cc1 (centres unmarked),2.75%
21,CCCCOC(=O)C1[C@H]2C(=O)N(c3ccccc3CC)C[C@]23C=C[C@H]1O3 (some centres unmarked),2.27%
22,Cc1ccc(NS(=O)(=O)c2cc3c4c(cccc4c2)C(=O)NC3=O)cc1,22%
23,CCOC(=O)CN1C(=O)C(O)(C2CCc3ccccc3C2=O)c2ccccc21 (centres unmarked),7.13%

row,Structure (SMILES),"hERG current change (%, negative = inhibition) at 1uM"
1,O=C(c1cccc(-n2cccc2)c1)N1CCN(S(=O)(=O)c2c(F)cccc2F)CC1,-7.88%
2,Cc1ccc(CN2C(=O)CCC2C(=O)NCc2cccnc2)cc1 (centres unmarked),5.88%
3,CCOc1cccc(C(=O)NC(=S)Nc2ccccc2)c1,3.84%
4,CCOc1ccc(C(CC(=O)O)NC(=O)Cc2ccccc2)cc1OC (centres unmarked),14.9%
5,COCc1[nH]nc2c1C1(CCSCC1)C(C#N)=C(N)O2,10.3%
6,COc1ccc(NC(=O)Cn2nnc(-c3ccc(CN4CCOCC4)cc3)n2)c(OC)c1,-2.8%
7,Nc1nnc(N)c2ccccc12,23.9%
8,CC(C)Oc1ccc(C(=O)NCCNC(=O)c2ccco2)cc1,9.59%
9,Cc1cccc(C)c1N1CCN(c2ccc3nnc(C(F)(F)F)n3n2)CC1,25%
10,CC(C)CNC(=O)CC1Nc2ccccc2NC1=O (centres unmarked),0.539%
11,CC(C)CCNC(=O)CSc1nc2ccsc2c(=O)n1NC(=O)c1ccccc1,-0.789%
12,O=C(NCC(c1ccco1)N1CCCC1)c1cn(Cc2ccccc2)nc1-c1ccccc1 (centres unmarked),-35.2%
13,Cl.O=C(COc1ccc(Cl)cc1)N1CCN(Cc2ccc3c(c2)OCO3)CC1,-16%
14,COc1ccc(CCNC(=O)C(=O)NCC2OCCN2S(=O)(=O)c2cccs2)cc1 (centres unmarked),14.3%
15,O=c1cc(N2CCCCC2)c(-c2ccccc2)nn1Cc1c(Cl)cccc1Cl,-0.597%
16,COc1ccc(/C=N/n2c(-c3cc(C)[nH]n3)n[nH]c2=S)cc1,14.3%
17,COc1ccc(C(=O)NCc2nc3ccccc3[nH]2)cc1OC,8.15%
18,COc1ccccc1-c1cc(C(=O)NCCc2ccccc2)no1,11%
19,CCCS(=O)(=O)c1ncc(Cl)c(C(=O)Nc2ccc(S(=O)(=O)Nc3ncccn3)cc2)n1,14.3%
20,O=C(CCN1C(=O)C2C3CCC(C3)C2C1=O)OCC(=O)c1ccccc1 (centres unmarked),3.59%
21,CCC1S/C(=N/N=C/c2ccco2)NC1=O (centres unmarked),10.9%
22,NS(=O)(=O)c1ccc(Sc2ccccn2)c([N+](=O)[O-])c1,13%
23,CCOC(=O)c1nnn(-c2nonc2-n2cccc2)c1C,0.343%

row,Structure (SMILES),"hERG current change (%, negative = inhibition) at 1uM"
1,Cc1cc(O)ccc1NC1=CC(=O)CC(C)(C)C1,12.4%
2,COc1ccc(C2/C(=C(/O)c3ccc(C)cc3)C(=O)C(=O)N2C)c(OC)c1 (centres unmarked),17.4%
3,O=C1CC(NCc2ccco2)C(=O)N1CCc1ccccc1 (centres unmarked),-0.679%
4,CCn1c(C(=O)O)c(CC(=O)Nc2ccccc2OC)c2ccccc21,8.19%
5,Cc1cc(=O)oc2cc(O[C@@H]3O[C@H](CO)[C@H](O)[C@H](O)[C@H]3O)ccc12,5.57%
6,COc1cccc(C(=O)N2CCCc3ccccc32)c1,-3.04%
7,COc1ccc(-n2c(C)cc(/C=C3\SC(=S)N(Cc4ccco4)C3=O)c2C)cc1,8.36%
8,O=C(CCN1CCOCC1)N/N=C/c1cc([N+](=O)[O-])ccc1OC(F)F,11.2%
9,CCOc1ccc(N2C(=O)Cc3ccccc3C2=O)cc1,18.6%
10,O=C(NCc1nc2ccccc2[nH]1)C1=C[C@H](C2CCCCC2)C[C@H](OCCCCO)O1,4.65%
11,O=C(NCc1ccncc1)c1ccc(Cl)c(S(=O)(=O)N2CCOCC2)c1,12.3%
12,C/C(N)=C(/C#N)C(=O)COC(=O)c1ccc(NC(N)=O)cc1,5.4%
13,Cc1cc(N/N=C/c2ccc(O)cc2O)nc(-c2ccccc2O)n1,8.71%
14,Cc1ccc(C(=O)N2CCC3(CC2)NCCc2[nH]cnc23)cc1,-9.47%
15,COc1cccc(CNCc2ccc(C(=O)O)cc2)c1OC.Cl,8.71%
16,COCCn1c(C)cc(C(=O)COC(=O)c2ccc(Cl)c(S(N)(=O)=O)c2)c1C,-0.148%
17,COc1ccc(CNC(=O)CC(C)c2ccccc2)cc1 (centres unmarked),9.3%
18,CSc1ccccc1-c1nc(-c2ccncc2)no1,14.6%
19,CCN(CC)c1ccc2cc(C(N)=O)c(=N)oc2c1,-6.33%
20,Br.C/C(Sc1nnc(Cc2ccccc2)o1)=C(/O)c1ccccc1,5.08%
21,Cn1ccnc1SCC(=O)Nc1cccc(C(F)(F)F)c1,7.12%
22,COCCN1Cc2cccc(C(=O)Nc3cccc(-c4nc5ccccc5[nH]4)c3)c2C1=O,9.24%
23,O=C(CCCOc1ccccc1)Nc1cccc(S(=O)(=O)N2CCCCCC2)c1,13.2%

row,Structure (SMILES),"hERG current change (%, negative = inhibition) at 1uM"
1,O=C(CC1CCCC1)N1CCN(S(=O)(=O)c2ccc(F)cc2)CC1,0.466%
2,CCOc1ccc2c(c1)c1nnc(SCC(=O)NC3CC3)nc1n2C,-1.34%
3,Cc1ccccc1NC(=O)Cc1nc(COC(=O)CCNS(=O)(=O)c2ccccc2)cs1,3.6%
4,O=C(Oc1ccc2c(c1)OCC2=O)c1ccccc1,13.6%
5,CCOC(=O)C(C)(C)Sc1nc2c(cnn2-c2ccc(Cl)cc2)c(=O)[nH]1,4.97%
6,CCC(Sc1nc(-c2ccccc2)c(C#N)c(=O)[nH]1)C(=O)Nc1cc(C)on1 (centres unmarked),4.78%
7,Cl.OC(CN1C2=NCCCN2c2ccccc21)c1ccc(Br)cc1 (centres unmarked),-86.2%
8,CC1Cc2nc(SCC(=O)N3CCOCC3)n(C)c(=O)c2S1 (centres unmarked),10.8%
9,COc1cc(NC(=O)c2ccccc2)cc(OC)c1,7.74%
10,COc1ccccc1NC(=O)C1=C(C)Nc2nnnn2C1c1cccc(C)c1 (centres unmarked),15.8%
11,O=C(Nc1ccnn1C1CCN(Cc2ccc(Cl)cc2)CC1)C1CCCC1,-37.2%
12,Cn1c(C(=O)OCC(=O)NCc2cccs2)cc2sccc21,13%
13,S=C(Nc1ccccc1)Nc1nccs1,16%
14,CC(C)(C)OC(=O)N[C@@H](Cc1ccccc1)C(=O)NCC1CCC(C(=O)O)CC1 (some centres unmarked),17.2%
15,CCCNC(=O)C(Cc1ccccc1)NC(=O)c1ccc(C(F)(F)F)cc1 (centres unmarked),16.3%
16,COc1cc(/C=N/NC(=O)c2nonc2N)cc(OC)c1OC,12.4%
17,O=C(CN1CCCCC1)Nc1ccc(Br)cc1C(=O)c1ccccc1Cl,9.75%
18,CCn1c(SCC(=O)NNC(=O)c2ccco2)nnc1-c1ccco1,11.3%
19,CC(C)C(=O)N1CCc2cc(-c3csc(N)n3)ccc21,3.68%
20,CC(C)NC(=O)c1ccc(NC(=O)CC2SC(N3CCCC3)=NC2=O)cc1 (centres unmarked),7.79%

# Source: publication PMC4336329 (PLoS ONE, 2015)
